# Assay results: the supplement of paper PMC3334620
# The full ranking holds about 33,000 sequences; the median of “E-score (-0.5 to 0.5)” is about -0.012, and the highest 2% start at about 0.29. The list shows a part of the results.
# Molecular target: T1, Ybr033w (UniProt P38073)
# T1 sequence: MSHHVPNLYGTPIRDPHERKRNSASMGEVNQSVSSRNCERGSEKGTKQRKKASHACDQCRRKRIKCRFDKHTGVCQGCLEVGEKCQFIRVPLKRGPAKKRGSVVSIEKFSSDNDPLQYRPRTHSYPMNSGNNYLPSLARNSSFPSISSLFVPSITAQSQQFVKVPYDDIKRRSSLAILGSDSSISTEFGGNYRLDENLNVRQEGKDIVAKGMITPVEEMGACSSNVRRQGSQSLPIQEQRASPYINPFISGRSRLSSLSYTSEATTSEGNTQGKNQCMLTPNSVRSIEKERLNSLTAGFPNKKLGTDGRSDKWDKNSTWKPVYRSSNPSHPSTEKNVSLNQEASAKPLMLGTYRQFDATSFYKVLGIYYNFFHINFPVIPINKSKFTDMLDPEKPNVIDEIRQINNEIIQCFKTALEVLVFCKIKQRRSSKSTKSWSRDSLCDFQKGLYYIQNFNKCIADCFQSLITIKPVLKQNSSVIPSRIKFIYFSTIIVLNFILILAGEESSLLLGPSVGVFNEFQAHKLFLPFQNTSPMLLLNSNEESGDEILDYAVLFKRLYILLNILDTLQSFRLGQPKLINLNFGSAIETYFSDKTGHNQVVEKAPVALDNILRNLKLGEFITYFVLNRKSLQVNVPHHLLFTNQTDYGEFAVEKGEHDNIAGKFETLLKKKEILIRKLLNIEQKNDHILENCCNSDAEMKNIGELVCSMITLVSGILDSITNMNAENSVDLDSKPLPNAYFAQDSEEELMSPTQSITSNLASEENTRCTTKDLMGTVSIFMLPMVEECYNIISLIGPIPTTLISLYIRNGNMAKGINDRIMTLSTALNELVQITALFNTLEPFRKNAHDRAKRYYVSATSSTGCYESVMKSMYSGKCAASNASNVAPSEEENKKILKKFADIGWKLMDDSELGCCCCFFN
# Test: PBM E-score (8-mer binding enrichment) (E-score (-0.5 to 0.5)); higher = stronger / more preferred TF binding; most listed sequences are background and not binding sites
# Details: protein concentration: 200 nM; construct: GST-full length
# Experimental: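 Universal 'all 10-mer' protein binding microarrays (Agilent AMADID 015681) probed with GST-tagged S. cerevisiae TFs (full-length or DBD) made by in vitro transcription/translation (PURExpress), about 100-200 nM. Bound TF was detected with fluorescent anti-GST. Each ungapped 8-mer (which stands for itself and its reverse complement) is scored by the PBM enrichment score (E-score), a modified Wilcoxon-Mann-Whitney statistic from -0.5 to +0.5, computed with the Universal PBM Analysis Suite. Scale: above 0.35 generally sequence-specific binding.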
row,Sequence,PBM E-score
1,CCTAAATA,0.118
2,ACCCCAAA,0.0335
3,ATATTTCA,0.255
4,AACAAGGG,-0.0261
5,AAACAAAC,0.229
6,CGCATCAA,0.104
7,AAAATGGT,0.319
8,CTCCCAAA,-0.0178
9,AAGATCTG,-0.0306
10,ATTGACCC,0.0147
11,ACTCAACG,-0.0931
12,ATAGGTGG,-0.108
13,ACTTAAGG,0.0158
14,ACGGCGCT,-0.218
15,AACGACGA,0.179
16,GAGAGCTA,-0.0943
17,ACCGTACA,-0.00124
18,GAAGATGA,0.0501
19,GTACGCCA,-0.147
20,ACTAAACG,0.09
21,CTGACTAC,-0.104
22,AACGCGGC,-0.247
23,CCGGACAA,0.0878
24,GACCTCCA,-0.263
25,TCCGGCGA,0.0646

row,Sequence,PBM E-score
1,GGAGTATA,0.0551
2,GTGATCGA,0.0735
3,CGGTCTTC,-0.0816
4,CCCATGAG,-0.15
5,GGAAAGCC,-0.0161
6,ATGAATGA,0.175
7,TGGTGCAA,-0.175
8,ATTGGCCA,-0.00978
9,GTCCCTTA,-0.0797
10,CGATTCCG,-0.0765
11,AGCTTACA,0.127
12,CTCGTAGA,-0.194
13,GGGAGGAA,-0.0362
14,TAGCGGCA,-0.164
15,AAACCAGC,-0.0846
16,GAAGTGGA,0.108
17,ACCGGCGA,-0.144
18,ACTGTGAT,0.0145
19,CATATAGG,-0.0375
20,TACTGACA,0.144
21,ATAAGCAC,0.0234
22,CTCTATAA,0.153
23,AAACTATC,0.202
24,GGCCAATA,-0.0498
25,ACATCATC,0.284

row,Sequence,PBM E-score
1,CTGGGTGC,-0.353
2,CAAGAAAG,0.118
3,CTTGTATA,0.155
4,CCACCCCC,-0.35
5,TCTAACAA,0.183
6,TCCCGGCA,-0.245
7,CCAATCAC,-0.0687
8,AGGAACCA,-0.0143
9,GTCTGTGA,-0.0386
10,AGTACTGC,-0.0437
11,ATGTGCTG,0.123
12,AGGAATCA,0.193
13,AGCCCTGA,-0.118
14,GGCCCGTA,-0.258
15,ACTGAATC,-0.0178
16,GAGTCGTA,0.00926
17,CCTTTGCG,0.068
18,AATTCTAT,0.181
19,GTTGTGTA,0.00199
20,CTTCACCA,-0.135
21,AGGAAATA,0.298
22,ACACTCAG,0.0865
23,CACTTCCC,-0.0444
24,ATTTTGGA,0.202
25,AATTGTAT,0.0576

row,Sequence,PBM E-score
1,TGTCAAAA,0.184
2,ACAGTGTC,-0.138
3,CTGAAATC,-0.11
4,CTCTAGGA,-0.207
5,AAAAAAGG,0.151
6,CAGGACAA,0.204
7,GAAAATCA,0.276
8,CCGGCCGC,-0.254
9,CCGTACGA,0.0233
10,AGTCATGC,-0.145
11,CCCACGTA,-0.0817
12,ATATTTAG,0.321
13,GATCCGGA,0.0776
14,ATACGGCG,0.0505
15,AATTTCGC,0.138
16,ATAGCATC,0.11
17,CATTCCAA,0.0384
18,CGCCAGAA,0.043
19,AAGCTCCA,0.0237
20,ACCGGCCC,-0.34
21,CTAGAAGA,0.107
22,TTAGGAAA,0.167
23,GCGGTCGA,-0.0149
24,CGGGTATC,-0.0976
25,TGGGGCAA,-0.345

row,Sequence,PBM E-score
1,AGGAATAC,-0.131
2,CATAAAGC,-0.0711
3,GGGTTATA,-0.0188
4,ATACACAG,0.00306
5,GCATCGAC,-0.0951
6,TAACCCCA,-0.242
7,CGGCCACC,-0.113
8,CCAATGAC,-0.113
9,CCAGGCGA,-0.277
10,ATCAGCTG,0.205
11,GATCGTTA,0.0718
12,GATGACGA,0.0438
13,AGGACACA,0.175
14,CACCAGAA,-0.119
15,TCCTAAAA,0.0432
16,CTTCCGAA,0.208
17,ACACGGCT,-0.177
18,ATACCAAC,0.232
19,AATTGCTG,0.0602
20,CATACGCG,-0.00546
21,GCCATGAA,-0.0481
22,GGAGACGA,0.217
23,CCCTTGCA,-0.291
24,GTCAGACA,-0.157
25,ATGCGGCC,-0.225

row,Sequence,PBM E-score
1,GCTGAAAC,0.0977
2,CGCATAAG,0.0829
3,AAGATACG,0.226
4,CATACTCC,0.0669
5,AGTTGCTG,-0.00876
6,AGACTCGC,-0.234
7,ACGGGGCA,-0.216
8,AATGCTGG,-0.0134
9,AAACCAAG,-0.00645
10,ATTCTGGG,0.146
11,CCCGCGGA,-0.151
12,GACAGCTA,0.0801
13,ATGAGTCG,-0.0608
14,CTCCTCCC,-0.267
15,AATTGCTA,0.0712
16,CCTTACGC,-0.0907
17,ACCCCCGT,-0.35
18,CATATTAC,0.17
19,AATTACTA,0.234
20,CATTAAGA,0.109
21,TATGCAGA,-0.0126
22,GGGCTCTA,-0.0717
23,AGCAGCCC,-0.266
24,ACATAAAG,0.109
25,CCCATCGA,-0.0549

row,Sequence,PBM E-score
1,AAGTAGGA,0.0218
2,CGATACCG,-0.137
3,ACAGGTTC,-0.204
4,ACTTGCTA,0.0798
5,CGATATGA,0.061
6,GTAAGTGA,0.163
7,AGGACGTA,-0.222
8,GGTCGGAA,0.108
9,CAGTCAAC,-0.111
10,AAAACAGG,-0.00112
11,ATGCACAG,-0.0564
12,AGACAACC,0.026
13,AATGTCAA,0.00312
14,AGCCTGAG,-0.12
15,CAGTTTTC,0.0628
16,CATGTGGA,0.11
17,ATCACACC,-0.0155
18,GGGCTCAC,-0.35
19,AGACGAAC,0.151
20,ACCAGGTC,-0.175
21,CTCTACAC,-0.176
22,AGGATATC,0.0694
